Measurements from PubChem BioAssay AID624417 (National Center for Advancing Translational Sciences (NCATS), 2012).
“And” between values parts separate entries of the source, which are not always exact repeats. Equal values may be shown once. The whole screen tested about 410,000 compounds, of which about 6,400 (1.6%) were called active. Inconclusive results, whose numbers are uncertain, are shown with a selection of clear calls. Calls follow the shape of the dose curve; as a rule, active = well fitted inhibition curve with a large enough effect; inconclusive = small, poorly fitted or top-dose-only effect; inactive = no such curve, though single readings can be large or run the other way. Potencies of inconclusive entries are doubtful fits and often do not repeat.

The compounds below were run against Glucagon-like peptide 1 receptor (Homo sapiens) (UniProt P43220) (assay: qHTS of GLP-1 Receptor Inverse Agonists (Inhibition Mode)). Conditions: HEK293 GLP-1R CRE-luciferase, luminescence, 24 h, GLP-1R form is constitutively active; activity change, negative = inhibition: at 38.3 µM (top of the series) unless noted.
Method in brief: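 Assay principle: reduced luminescence from a cAMP-responsive reporter in HEK293 cells co-expressing a constitutively active GLP-1R. Conditions: 24 hr compound incubation, 37 deg C, 5% CO2.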
% is scaled to controls: 0 for no effect and ±100 for the full control effect; potency is read from the fitted curve at half-maximal effect; tags tell the direction and shape of the fitted curve.
Also: nearly all actives have a fitted effect of over 55% in size.

Sequence of UniProt P43220 (P43220 whole entry, looked up): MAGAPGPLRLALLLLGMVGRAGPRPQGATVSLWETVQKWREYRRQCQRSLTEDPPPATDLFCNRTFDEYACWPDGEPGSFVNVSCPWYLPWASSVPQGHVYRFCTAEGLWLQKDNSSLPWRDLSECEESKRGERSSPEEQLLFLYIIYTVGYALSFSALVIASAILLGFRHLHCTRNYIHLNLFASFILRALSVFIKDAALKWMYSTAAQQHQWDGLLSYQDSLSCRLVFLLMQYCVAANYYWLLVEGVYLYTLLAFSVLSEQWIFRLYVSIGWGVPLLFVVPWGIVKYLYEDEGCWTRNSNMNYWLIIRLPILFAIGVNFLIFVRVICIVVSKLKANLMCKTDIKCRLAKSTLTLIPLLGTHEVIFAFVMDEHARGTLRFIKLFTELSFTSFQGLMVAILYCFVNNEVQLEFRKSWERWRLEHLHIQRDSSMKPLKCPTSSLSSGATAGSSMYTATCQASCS

For `CC[C@@]1(C(=O)OC)N[C@H](CN(C)C(=O)c2ccccc2)[C@@H]2C(=O)N(C)C(=O)[C@@H]21`, which “activity change, negative = inhibition” value is on record?
The value was inactive: 6.84%.

For `CCC(NC(=O)c1cccc(Cn2cc([N+](=O)[O-])cn2)c1)c1ccc(C(C)C)cc1` (stereo unspecified), which Potency is on record?
Its Potency is inconclusive: 31.6 µM [inhibitor, partial curve, poor fit].

How did the Potency turn out when `COc1cccc(N2CCN(C(=O)c3ccc(CS(=O)Cc4ccccc4Cl)o3)CC2)c1` (stereo unspecified) was run?
The Potency was inconclusive: 28.2 µM [inhibitor, partial curve, poor fit].

With `Cc1ccc(C2(C)NC(=O)N(CC(=O)N3CCN(S(=O)(=O)c4ccc(Cl)s4)CC3)C2=O)cc1` (stereo unspecified) as the compound, how does the Potency read?
The Potency was inconclusive: 28.2 µM [inhibitor, single point].

With `O=[N+]([O-])c1c(NCCCO)cc(SCc2ccco2)c2nonc12` as the compound, how does the Potency read?
The Potency was inconclusive: 28.2 µM [inhibitor, single point].

How did the Potency turn out when `Cc1nn(CC(=O)NCCCN2CCC(N3CCCCC3)CC2)c(=O)c2cc(-c3ccccc3)nn12` was run?
Its Potency is inconclusive: 2.24 µM [inhibitor, full curve, poor fit].

Which Potency does the source give for `O=C(OCc1ccccc1)N1C=CC2CC1c1c(Cl)cccc12` (stereo unspecified) here?
The Potency was inconclusive: 12.6 µM [inhibitor, single point].

Which Potency does the source give for `COc1ccc(-c2cc(C3CC3)nc3sc(C#N)c(N)c23)cc1` here?
The Potency was inconclusive: 14.1 µM [inhibitor, single point].

How did the Potency turn out when `Cc1cc(C)cc(NC(=O)Nc2ccc3nc(N4CCN(C)CC4)cc(C)c3c2)c1` was run?
Its Potency is inconclusive: 3.16 µM [inhibitor, partial curve, poor fit].

For `COc1ccc(CCNC(=O)C(C)SCC(=O)Nc2ccc(F)cc2)cc1` (stereo unspecified), which Potency is on record?
Its Potency is inconclusive: 7.94 µM [inhibitor, partial curve, poor fit].

`COc1cccc(Oc2nc(C)nc3c2oc2ccccc23)c1` was tested. Which “activity change, negative = inhibition” value did it give?
The value was inactive: -0.416%.

Which Potency does the source give for `COc1ccc(Cl)cc1NC(=O)COC(=O)C(CC(C)C)N1C(=O)C2CC=CCC2C1=O` (stereo unspecified) here?
The Potency was inconclusive: 11.2 µM [inhibitor, partial curve].

For `Cc1c(C(=O)C(=O)N2c3ccc(F)cc3CCC2C)c2ccccc2n1C` (stereo unspecified), which Potency is on record?
Its Potency is inconclusive: 2.82 µM [inhibitor, partial curve].

Which Potency does the source give for `CC(CNC(=O)CCc1cn(Cc2ccccc2Cl)c2ccccc12)c1ccccc1` (stereo unspecified) here?
Its Potency is inconclusive: 11.2 µM [inhibitor, partial curve, poor fit].

How did the Potency turn out when `N#CCCN(C1CCCCC1)S(=O)(=O)CCOc1ccccc1` was run?
Its Potency is inconclusive: 11.2 µM [inhibitor, single point].

`CCOc1ccc(NC(=O)c2ccccc2NC(=O)CN2CCCCCC2)cc1` was tested. Which Potency did it give?
The Potency was inconclusive: 5.62 µM [inhibitor, partial curve].

With `O=[N+]([O-])c1ccc(CNC2CCCc3ccccc32)cc1` (stereo unspecified) as the compound, how does the Potency read?
Its Potency is inconclusive: 12.6 µM [inhibitor, single point].

For `CCN1CCN(Cc2ccc(NC(=O)c3ccc(C)c(NC(=O)c4cc(-c5ccc(Br)cc5)n[nH]4)c3)cc2C(F)(F)F)CC1`, which Potency is on record?
Its Potency is inconclusive: 28.2 µM [inhibitor, single point].

How did the “activity change, negative = inhibition” value turn out when `O=C(Nc1cccc(Cl)c1)c1ccccc1` was run?
The value was inactive: -26.9%.

With `O=C(Nc1ccc2c(c1)CCCN2C(=O)c1cccs1)c1ccccc1` as the compound, how does the Potency read?
Its Potency is inconclusive: 11.2 µM [inhibitor, single point] and inconclusive: 11.2 µM [inhibitor, partial curve, poor fit].

For `COC(=O)c1ccc(NC(=S)NCCC2=CCCCC2)cc1`, which Potency is on record?
Its Potency is inconclusive: 22.4 µM [inhibitor, single point].

With `COc1ccccc1NC(=S)NCC1CCCCC1` as the compound, how does the Potency read?
The Potency was active: 10 µM.

For `O=C(NC(=O)c1ccccc1)C1=C(N2CCCC2)COC1=O`, which Potency is on record?
The Potency was inconclusive: 28.2 µM [inhibitor, single point].

`Cc1ccccc1-c1nn(-c2ccc(F)cc2F)cc1CNCCCN(C)C` was tested. Which Potency did it give?
The Potency was inconclusive: 2 µM [inhibitor, full curve].

`COc1cc(OC)c(-c2cc(C(=O)NCc3ccc(F)cc3)c3c(-c4ccccc4)[nH]nc3n2)cc1OC` was tested. Which Potency did it give?
The Potency was inconclusive: 12.6 µM [inhibitor, single point].

Which Potency does the source give for `CC1CCCC(NC(=O)CCNS(=O)(=O)c2ccc(Br)cc2)C1C` (stereo unspecified) here?
Its Potency is inconclusive: 10 µM [inhibitor, partial curve, poor fit].

For `O=C(CSc1cnc2ccccc2n1)c1ccc(F)cc1`, which Potency is on record?
Its Potency is inconclusive: 28.2 µM [inhibitor, single point].

How did the “activity change, negative = inhibition” value turn out when `COc1ccc(CCNc2oc(-c3ccccc3OC)nc2C#N)cc1OC` was run?
The value was inactive: 75.3%.

For `CC(C)c1ccc(OCc2ccc(C(=O)N(C)C)o2)cc1`, which Potency is on record?
The Potency was inconclusive: 31.6 µM [inhibitor, single point].

`Cc1ccc(CCNC(=O)CCCn2c(=O)c3ccccc3n(Cc3ccccc3C)c2=O)cc1` was tested. Which “activity change, negative = inhibition” value did it give?
The value was inactive: -3.12%.

Which Potency does the source give for `CC1=C(O)C(=O)C(c2c(C)cc(C)c(Br)c2C)=C(O)C1=O` here?
The Potency was inconclusive: 14.1 µM [inhibitor, single point].

How did the Potency turn out when `O=C(COc1ccc(F)cc1)NCC(c1ccc(Cl)cc1)N1CCCCC1` (stereo unspecified) was run?
Its Potency is inconclusive: 22.4 µM [inhibitor, single point].

`O=C(c1ccc(COc2ccc3c(c2)CCC3)o1)N1CCN(c2ccccc2)CC1` was tested. Which Potency did it give?
The Potency was inconclusive: 11.2 µM [inhibitor, partial curve, poor fit].

With `S=C1NCN(CCc2ccccc2)CN1Cc1ccccc1` as the compound, how does the Potency read?
The Potency was inconclusive: 20 µM [inhibitor, single point].

With `COc1ccc(NC(=O)COC(=O)c2c3c(nc4ccccc24)CCCC3)cc1Cl` as the compound, how does the Potency read?
Its Potency is active: 3.55 µM.

How did the Potency turn out when `O=C(NNc1ccc(F)cc1F)C1CCC1` was run?
The Potency was inconclusive: 1.12 µM [inhibitor, full curve, poor fit].

How did the “activity change, negative = inhibition” value turn out when `CCOC(=O)C1CCCN(S(=O)(=O)c2ccc(C)cc2)C1` (stereo unspecified) was run?
Its value is inactive: -15.2%.

For `N#CCC(=O)Nc1ccc(C(=O)OCC(=O)Nc2cccc(C(F)(F)F)c2)cc1`, which Potency is on record?
Its Potency is inconclusive: 28.2 µM [inhibitor, single point].

For `COc1ccc(S(=O)(=O)N2CCN(C3CCCC(C)C3)CC2)cc1` (stereo unspecified), which Potency is on record?
Its Potency is inconclusive: 28.2 µM [inhibitor, single point].

How did the Potency turn out when `C/C(=N\NC(=O)c1cccc(O)c1)c1ccc(NC(=O)Cc2ccccc2)cc1` was run?
The Potency was inconclusive: 12.6 µM [inhibitor, single point].

With `Cc1ccc(C23CC4CC(CC(C(=O)N5CCN(C)CC5)(C4)C2)C3)cc1` as the compound, how does the Potency read?
The Potency was active: 8.91 µM.

For `CC(C)(C)n1nc2c(c1NC(=O)c1cc([N+](=O)[O-])ccc1Cl)CS(=O)(=O)C2`, which Potency is on record?
The Potency was inconclusive: 14.1 µM [inhibitor, partial curve, poor fit].

With `CCOc1ccccc1N(CC(=O)NC1CCCCC1)S(=O)(=O)c1ccc(C)cc1` as the compound, how does the Potency read?
The Potency was inconclusive: 28.2 µM [inhibitor, single point].

`O=C(c1cc(Cl)ccc1OCc1ccccc1)N1CCOCC1` was tested. Which “activity change, negative = inhibition” value did it give?
The value was inactive: -18.1%.

With `CCOC(=O)C(=O)N(Nc1ccc(C)cc1)c1ccc(C)cc1` as the compound, how does the Potency read?
Its Potency is inconclusive: 7.08 µM [inhibitor, partial curve, poor fit].

For `CCc1ccc(-c2cc(C)no2)cc1S(=O)(=O)N1CCOc2ccc(C)cc21`, which Potency is on record?
The Potency was inconclusive: 25.1 µM [inhibitor, single point].

How did the Potency turn out when `NC(N)=N/N=C/c1ccc(OCc2ccccc2)c(OCc2ccccc2)c1` was run?
The Potency was inconclusive: 28.2 µM [inhibitor, single point].

For `S=C1Nc2ccccc2Sc2ccc(Cl)cc21`, which “activity change, negative = inhibition” value is on record?
The value was inactive: 4.77%.

For `O=C(/C=C/c1ccccc1)Nc1scc(-c2ccccc2)c1C(=O)O`, which Potency is on record?
Its Potency is inconclusive: 11.2 µM [inhibitor, partial curve, poor fit].

How did the Potency turn out when `CCc1ccc2ncc(C(=O)c3ccc(C)c(C)c3)c(N3CCC(C(N)=O)CC3)c2c1` was run?
The Potency was inconclusive: 28.2 µM [inhibitor, single point].

Which Potency does the source give for `O=C(CCN1CCN(c2ccccc2)CC1)NNC(=O)Cc1ccc(Br)cc1` here?
Its Potency is inconclusive: 10 µM [inhibitor, partial curve, poor fit].

How did the Potency turn out when `CCOc1ccc(CCNC(=O)C2(c3ccccc3)CC2)cc1OCC` was run?
Its Potency is inconclusive: 28.2 µM [inhibitor, single point].

For `O=C(CNc1cc(S(=O)(=O)N2CCOCC2)ccc1N1CCCC1)Nc1ccc(Cl)cc1`, which Potency is on record?
The Potency was inconclusive: 14.1 µM [inhibitor, partial curve, poor fit].

With `COc1ccc(C2=Nc3ccc(F)cc3NC(c3cccc(C(F)(F)F)c3)=N2)cc1` as the compound, how does the Potency read?
The Potency was inconclusive: 11.2 µM [inhibitor, partial curve, poor fit].

For `Oc1cccc(/C=N/Nc2cccc3cccnc23)c1`, which Potency is on record?
The Potency was inconclusive: 11.2 µM [inhibitor, single point].

For `O=C(NCc1ccc(Cl)cc1)c1ccccc1CCc1ccccc1`, which Potency is on record?
Its Potency is inconclusive: 10 µM [inhibitor, partial curve, poor fit].

`Cc1cccc(N2CCN(Cc3nnc(-c4ccccc4C)o3)CC2C)c1` (stereo unspecified) was tested. Which Potency did it give?
The Potency was inconclusive: 10 µM [inhibitor, partial curve, poor fit].

For `CCc1ccc(-c2nn(-c3ccccc3)cc2C2SCC(=O)N2Cc2ccco2)cc1` (stereo unspecified), which Potency is on record?
Its Potency is inconclusive: 11.2 µM [inhibitor, single point].

With `O=C1NC[C@H](Cc2ccccc2)N(C[C@H]2CCCN2C[C@H](Cc2ccccc2)N2C[C@H](Cc3ccccc3)N(CC3CCCCCC3)C(=O)C2=O)C1=O` as the compound, how does the Potency read?
The Potency was inconclusive: 28.2 µM [inhibitor, single point].

Which Potency does the source give for `Cc1ccc(-c2nnc(SCC(=O)N3CCOCC3)nc2-c2ccc(C)cc2)cc1` here?
Its Potency is inconclusive: 5.62 µM [inhibitor, full curve, poor fit].

Which Potency does the source give for `O=C(CSc1c2c(nc3ccccc13)CCC2)Nc1ccc(F)cc1` here?
The Potency was inconclusive: 31.6 µM [inhibitor, single point].
